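Dose response: 5 concentrations. Exposure: 48 h. Format: 96-well plates. Endpoint: linear interpolation; highest concentration if not reached. Abbreviation: GI50, concentration required for 50% inhibition of growth. TGI denotes the concentration required for complete inhibition of growth.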 Activity calls are given as the source filed them. Bounds are passed on as bounds.

What all share (assay): NCI-60 cell line screen, 48 h
For experiment [1], the system named is SR leukemia.
In experiment [2] the test system is HOP-92 NSCLC.
Experiment [3] has as its system CCRF-CEM leukemia.
Experiment [4] relates to UACC-257 melanoma.
Experiment [5] concerns NCI-H23 lung.
The subject of experiment [6] is NCI-H226 lung.

Consider `Fc1ccc(-c2ncn(C3CCNCC3)c2-c2ccnc(Oc3cccc(F)c3)n2)cc1`, for which the GI50 result in experiment [1], in experiment [2], in experiment [3], in experiment [4] and in experiment [6] was “inactive” each time. Moreover, the TGI in experiment [1] is 13.3 µM; in experiment [2], more than 25 µM; in experiment [3], more than 25 µM; in experiment [4], 12.6 µM; in experiment [5], more than 25 µM; in experiment [6], more than 25 µM. Further, the GI50 in experiment [5] was more than 25 µM.
